In article PMC12820563 one finds binding signal (RPM ratio (pull-down/input)) data, which are given here for 40 sequences.

The other results are listed elsewhere or left out. The list includes weakly bound sequences.

This assay has as its target T1, MBP-FoxP3dN (UniProt Q99JB6).
T1 sequence: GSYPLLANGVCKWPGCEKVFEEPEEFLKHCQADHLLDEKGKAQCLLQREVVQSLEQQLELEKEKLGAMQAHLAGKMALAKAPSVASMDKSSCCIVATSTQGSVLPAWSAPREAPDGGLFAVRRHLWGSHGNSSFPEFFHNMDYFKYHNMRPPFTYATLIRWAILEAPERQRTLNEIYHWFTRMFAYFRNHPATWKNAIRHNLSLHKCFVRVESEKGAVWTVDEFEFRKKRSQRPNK
The assay is described as follows: PD-seq (MBP pull-down with sequencing). As to conditions: 20 mM Tris-HCl pH 7.5, 100 mM NaCl, 1.5 mM MgCl2, 0.4 uM protein, 0.1 uM dsDNA library, 30 min, room temperature, amylose pull-down; high values mean tight binding; double strand, one strand shown.
Consider “GATGATTGTTCTCCCAGCTGATGAATTTTCGGGATCGAGTAAACAAATTTTCCTAATCTTTCTGTTCAAGCGCCATCTAC”, for which the binding signal (RPM ratio (pull-down/input)) was found to be 0.23.
For “GATGATTGTTCTCCCAGCTGATGAATTCGTCTGATCGAGTAAACAAATTTTCCTAATCTTTCTGTTCAAGCGCCATCTAC”, the binding signal (RPM ratio (pull-down/input)) came out at 0.299.
Turning to “GATGATTGTTCTCCCAGCTGATGAATTGTCGAACTCGAGTAAACAAATTTTCCTAATCTTTCTGTTCAAGCGCCATCTAC”, the binding signal (RPM ratio (pull-down/input)) was found to be 0.315.
On to “GATGATTGTTCTCCCAGCTGATGAATTAACGGCGTCGAGTAAACAAATTTTCCTAATCTTTCTGTTCAAGCGCCATCTAC”, for which the binding signal (RPM ratio (pull-down/input)) was 0.466.
Turning to “GATGATTGTTCTCCCAGCTGATGAATTCAGAGAATCGAGTAAACAAATTTTCCTAATCTTTCTGTTCAAGCGCCATCTAC”, the binding signal (RPM ratio (pull-down/input)) is 0.179.
As to “GATGATTGTTCTCCCAGCTGATGAATTATGAGCATCGAGTAAACAAATTTTCCTAATCTTTCTGTTCAAGCGCCATCTAC”, the binding signal (RPM ratio (pull-down/input)) is 1.02.
For the sequence “GATGATTGTTCTCCCAGCTGATGAATTACCAGTCTCGAGTAAACAAATTTTCCTAATCTTTCTGTTCAAGCGCCATCTAC”, the binding signal (RPM ratio (pull-down/input)) stood at 0.362.
As for “GATGATTGTTCTCCCAGCTGATGAATTCAATAAATCGAGTAAACAAATTTTCCTAATCTTTCTGTTCAAGCGCCATCTAC”, the binding signal (RPM ratio (pull-down/input)) was 0.229.
Take “GATGATTGTTCTCCCAGCTGATGAATTATCCAAGTCGAGTAAACAAATTTTCCTAATCTTTCTGTTCAAGCGCCATCTAC”: the binding signal (RPM ratio (pull-down/input)) stood at 0.191.
With “GATGATTGTTCTCCCAGCTGATGAATTCGCACAGTCGAGTAAACAAATTTTCCTAATCTTTCTGTTCAAGCGCCATCTAC” the figure was 0.324.
Take “GATGATTGTTCTCCCAGCTGATGAATTCTTACCGTCGAGTAAACAAATTTTCCTAATCTTTCTGTTCAAGCGCCATCTAC”: the binding signal (RPM ratio (pull-down/input)) was determined as 0.233.
Regarding “GATGATTGTTCTCCCAGCTGATGAATTGAATGAATCGAGTAAACAAATTTTCCTAATCTTTCTGTTCAAGCGCCATCTAC”, the binding signal (RPM ratio (pull-down/input)) stood at 0.294.
The figure for “GATGATTGTTCTCCCAGCTGATGAATTCCTCGCATCGAGTAAACAAATTTTCCTAATCTTTCTGTTCAAGCGCCATCTAC” is 0.768.
With “GATGATTGTTCTCCCAGCTGATGAATTCGTCTTATCGAGTAAACAAATTTTCCTAATCTTTCTGTTCAAGCGCCATCTAC”, the binding signal (RPM ratio (pull-down/input)) was 0.611.
In the case of “GATGATTGTTCTCCCAGCTGATGAATTCGTCTCGTCGAGTAAACAAATTTTCCTAATCTTTCTGTTCAAGCGCCATCTAC”, the binding signal (RPM ratio (pull-down/input)) is 0.425.
The figure for “GATGATTGTTCTCCCAGCTGATGAATTTGACGTATCGAGTAAACAAATTTTCCTAATCTTTCTGTTCAAGCGCCATCTAC” is 1.27; for “GATGATTGTTCTCCCAGCTGATGAATTTGTTGGGTCGAGTAAACAAATTTTCCTAATCTTTCTGTTCAAGCGCCATCTAC” it is 7.61; for “GATGATTGTTCTCCCAGCTGATGAATTAGTGTAGTCGAGTAAACAAATTTTCCTAATCTTTCTGTTCAAGCGCCATCTAC” it is 2.04.
With “GATGATTGTTCTCCCAGCTGATGAATTTACTCAATCGAGTAAACAAATTTTCCTAATCTTTCTGTTCAAGCGCCATCTAC” the figure was 0.346.
“GATGATTGTTCTCCCAGCTGATGAATTCCGTGATTCGAGTAAACAAATTTTCCTAATCTTTCTGTTCAAGCGCCATCTAC”: the binding signal (RPM ratio (pull-down/input)) amounted to 0.914.
Regarding “GATGATTGTTCTCCCAGCTGATGAATTACCCTAATCGAGTAAACAAATTTTCCTAATCTTTCTGTTCAAGCGCCATCTAC”, the binding signal (RPM ratio (pull-down/input)) was 0.289.
As for “GATGATTGTTCTCCCAGCTGATGAATTCGGTCCTTCGAGTAAACAAATTTTCCTAATCTTTCTGTTCAAGCGCCATCTAC”, the binding signal (RPM ratio (pull-down/input)) was determined as 0.363.
With “GATGATTGTTCTCCCAGCTGATGAATTTGCCCGATCGAGTAAACAAATTTTCCTAATCTTTCTGTTCAAGCGCCATCTAC” the figure was 0.274; with “GATGATTGTTCTCCCAGCTGATGAATTTCAAGCATCGAGTAAACAAATTTTCCTAATCTTTCTGTTCAAGCGCCATCTAC”, 0.69.
With “GATGATTGTTCTCCCAGCTGATGAATTTGTTAGCTCGAGTAAACAAATTTTCCTAATCTTTCTGTTCAAGCGCCATCTAC”, the binding signal (RPM ratio (pull-down/input)) came to 6.55.
As for “GATGATTGTTCTCCCAGCTGATGAATTAATCCACTCGAGTAAACAAATTTTCCTAATCTTTCTGTTCAAGCGCCATCTAC”, the binding signal (RPM ratio (pull-down/input)) is 0.364.
As to “GATGATTGTTCTCCCAGCTGATGAATTTGAAGAATCGAGTAAACAAATTTTCCTAATCTTTCTGTTCAAGCGCCATCTAC”, the binding signal (RPM ratio (pull-down/input)) was determined as 0.169.
The figure for “GATGATTGTTCTCCCAGCTGATGAATTGTTCACATCGAGTAAACAAATTTTCCTAATCTTTCTGTTCAAGCGCCATCTAC” is 0.635; for “GATGATTGTTCTCCCAGCTGATGAATTTGTACTCTCGAGTAAACAAATTTTCCTAATCTTTCTGTTCAAGCGCCATCTAC” it is 2.81.
“GATGATTGTTCTCCCAGCTGATGAATTCCACCTATCGAGTAAACAAATTTTCCTAATCTTTCTGTTCAAGCGCCATCTAC”: the binding signal (RPM ratio (pull-down/input)) was 0.432.
For “GATGATTGTTCTCCCAGCTGATGAATTGTGCGTCTCGAGTAAACAAATTTTCCTAATCTTTCTGTTCAAGCGCCATCTAC”, the binding signal (RPM ratio (pull-down/input)) was 6.12.
With “GATGATTGTTCTCCCAGCTGATGAATTTAGCCACTCGAGTAAACAAATTTTCCTAATCTTTCTGTTCAAGCGCCATCTAC” the figure was 5.21.
In the case of “GATGATTGTTCTCCCAGCTGATGAATTCCATAACTCGAGTAAACAAATTTTCCTAATCTTTCTGTTCAAGCGCCATCTAC”, the binding signal (RPM ratio (pull-down/input)) turned out to be 0.339.
Take “GATGATTGTTCTCCCAGCTGATGAATTAGTTAATTCGAGTAAACAAATTTTCCTAATCTTTCTGTTCAAGCGCCATCTAC”: the binding signal (RPM ratio (pull-down/input)) was determined as 0.745.
Turning to “GATGATTGTTCTCCCAGCTGATGAATTGGCTAAATCGAGTAAACAAATTTTCCTAATCTTTCTGTTCAAGCGCCATCTAC”, the binding signal (RPM ratio (pull-down/input)) worked out at 0.25.
For the sequence “GATGATTGTTCTCCCAGCTGATGAATTCGAACCGTCGAGTAAACAAATTTTCCTAATCTTTCTGTTCAAGCGCCATCTAC”, the binding signal (RPM ratio (pull-down/input)) came out at 0.228.
Regarding “GATGATTGTTCTCCCAGCTGATGAATTATGCCGCTCGAGTAAACAAATTTTCCTAATCTTTCTGTTCAAGCGCCATCTAC”, the binding signal (RPM ratio (pull-down/input)) came out at 2.88.
Take “GATGATTGTTCTCCCAGCTGATGAATTTGTAACATCGAGTAAACAAATTTTCCTAATCTTTCTGTTCAAGCGCCATCTAC”: the binding signal (RPM ratio (pull-down/input)) was 1.81.
As for “GATGATTGTTCTCCCAGCTGATGAATTTATGATTTCGAGTAAACAAATTTTCCTAATCTTTCTGTTCAAGCGCCATCTAC”, the binding signal (RPM ratio (pull-down/input)) is 3.51.
On to “GATGATTGTTCTCCCAGCTGATGAATTGGAGCATTCGAGTAAACAAATTTTCCTAATCTTTCTGTTCAAGCGCCATCTAC”, for which the binding signal (RPM ratio (pull-down/input)) turned out to be 4.46.
